# Test results: PubChem BioAssay AID463173 (ICCB-Longwood Screening Facility, Harvard Medical School, 2010)
# Hit rate of the full screen: of about 52,000 compounds, about 1,700 (3.3%) were called active. Rule as the data show it: active = survival mostly below about 52% (no sharp cut-off); inactive = mostly above about 56%. The list shows a part of the results.
# System: Wild type
# Assay: S. aureus survival, RN4220 and DeltatarO strains – OD600, teichoic acid synthesis inhibitors, primary screen (AID 463173)
# Details: S. aureus RN4220 wild type/DeltatarO growth, OD600, 18 h, hits give low values, screened at 18.75 µg/mL (by protocol)
row,Compound,survival
1,Cc1cccc(CSc2nc3c(c(=O)[nH]2)C(c2cccc(O)c2)CC(=O)N3)c1 (configuration not stated),inactive: 107%
2,CCOC(=O)c1c(NC(=O)c2cc(C(C)C)on2)sc(C)c1C,inactive: 87%
3,COc1ccc(C2=C(C)C(=O)N(Cc3ccc(C(=O)NCc4ccc(C)cc4)cc3)S2(=O)=O)cc1,inactive: 89%
4,Cc1cccc(CN2CCN(CC(=O)NCc3ccc(Cl)cc3)C2=O)c1,inactive: 83%
5,Cn1nc(C(=O)NCc2ccc(Cl)cc2)c2c1-c1ccccc1SC2,inactive: 82%
6,CCCCC(CC)CNC(=O)c1ccc2c(=O)n(Cc3ccc(OC)cc3)c(=O)[nH]c2c1 (configuration not stated),inactive: 97%
7,COc1ccc(CNC(=O)Cc2c(C)c3c(cc(C)c4c(C)c(C)oc43)oc2=O)cc1,inactive: 102%
8,CCSc1ncc(Cl)c(C(=O)Nc2nc3ccc(OC)cc3s2)n1,inactive: 103%
9,Cc1ccc(N(Cc2cccs2)C(=O)c2ccc(Br)o2)cc1,inactive: 80%
10,Cc1cc(=O)n2nc(N3CCC(C(=O)Nc4ccc(C)c(Cl)c4)CC3)sc2n1,inactive: 94%
11,O=C(NC(NC(=O)c1ccco1)c1ccc(Br)cc1)c1ccco1,inactive: 109%
12,CCc1nonc1NC(=O)c1oc2ccccc2c1C,inactive: 92%
13,CC1(C)CC(=O)C=C(Nc2ccccc2F)C1,inactive: 100%
14,COc1ccc(CNC(=O)CCS(=O)(=O)c2ccc3c(c2)oc(=O)n3C)cc1,inactive: 70%
15,CCN(CC)C(=O)CSc1nnc(COc2ccc(C)cc2)n1N,inactive: 114%
16,CCOc1cc(C2c3c(-c4ccc(Br)cc4)n[nH]c3C(=O)N2c2ccc(Cl)cc2)ccc1O (configuration not stated),inactive: 42%
17,O=C1C2c3ccccc3CCN2C(=O)CN1CCc1ccccc1 (configuration not stated),inactive: 121%
18,CCOC(=O)N1CCC(NC(=O)c2ccc3c(c2)N(Cc2ccc(F)cc2)C(=O)c2ccccc2S3(=O)=O)CC1,inactive: 139%
19,Cc1ccc(CNC(=O)c2ccc3c(O)c(S(=O)(=O)c4ccccc4)c(=O)[nH]c3c2)cc1,inactive: 83%
20,CCOc1ccc(NC(=O)C(NS(=O)(=O)c2ccc3c(c2)CCN3C(C)=O)C(C)C)cc1 (configuration not stated),inactive: 124%
21,CCOc1ccccc1NC(=O)c1nnn(CC(=O)Nc2ccc(OC)c(OC)c2)c1N,inactive: 81%
22,O=C(CSc1nc2ccccc2nc1Cc1ccc(Cl)cc1)NCCc1ccccc1,inactive: 69%
23,COc1ccc(/C=C2\CCOC2=O)cc1,inactive: 109%

row,Compound,survival
1,COc1ccc(OC)c(C(C)NC(=O)Cn2c(=O)cc(C)c3c(C)nn(-c4ccc(C)cc4)c32)c1 (configuration not stated),inactive: 82%
2,COc1ccc(CNC(=O)c2nn(-c3ccccc3C)nc2CO)cc1,inactive: 89%
3,Cc1ccc(C)c(N2CCN(Cc3csc(C)c3C)CC2)c1,inactive: 82%
4,COc1ccccc1-c1cc(C(=O)N2CCCCC2C)no1 (configuration not stated),inactive: 27%
5,CCCCC(=O)Nc1ccc2nc(SCC(=O)N3CCCC3)sc2c1,inactive: 88%
6,CCc1ccc(Nc2ncnc3c2cnn3-c2cc(Cl)ccc2C)cc1,inactive: 90%
7,COc1cccc(CNC(=O)C(NS(=O)(=O)c2ccc3c(c2)CCN3C(C)=O)C(C)C)c1 (configuration not stated),inactive: 84%
8,CCOc1ccccc1CC1C(=O)Nc2ccc(Br)cc21 (configuration not stated),inactive: 73%
9,Cc1cccc(-c2nc(Cn3c(=O)cc(-c4ccccc4)c4c(C)nn(C)c43)c(C)o2)c1,active: -6%
10,CCn1cc(C(=O)OCC(=O)Nc2ccc(F)cc2F)c(=O)c2ccc(C)nc21,inactive: 144%
11,COC(F)(C(=O)NC12CC3CC(CC(C3)C1)C2)C(F)(F)F (configuration not stated),inactive: 121%
12,COC(=O)c1ccc(Cn2c(=O)cc(C(F)(F)F)c3c(C)nn(C)c32)cc1,inactive: 69%
13,O=C(Cn1c2ncccc2c(=O)n1-c1ccccc1)Nc1ccc(F)c(F)c1,inactive: 153%
14,O=C(NCc1ccc(Cl)cc1)C1CCCN(c2nc3ccccc3n3cccc23)C1 (configuration not stated),inactive: 105%
15,CCOc1ccc(S(=O)(=O)N(CC(=O)NCCSc2ccccc2)c2ccccc2)cc1,inactive: 94%
16,CCN(c1ccc(OC)cc1)S(=O)(=O)c1ccc2[nH]c(=O)ccc2c1,inactive: 72%
17,Cc1ccccc1Cn1c(=O)n(CCc2ccccc2)c(=O)c2ccccc21,active: 4%
18,Cc1cc(C)nc(N2CCCC(C)C2)n1 (configuration not stated),inactive: 99%
19,Cc1cc(N2CCCCC2)nc2ccc(NC(=O)/C=C/c3ccccc3Cl)cc12,inactive: 73%
20,O=C(Nc1ccccc1C(=O)OCc1cc(=O)n2c3c(sc2n1)CCCC3)c1cccc(Cl)c1,inactive: 73%
21,COC(=O)c1c(-c2ccc(Cl)cc2)noc1N1CCN(c2cccc(C(F)(F)F)c2)CC1,inactive: 70%
22,CCc1ccccc1NC(=O)NCc1ccc2c(c1)CCN2C(=O)c1ccccc1,inactive: 140%
23,NNC(=O)CSc1c(-c2cccs2)[nH]c2ccccc12,inactive: 105%

row,Compound,survival
1,Cc1cc2c(c(=O)o1)C(C(C)C)C(C#N)=C(N)O2 (configuration not stated),inactive: 100%
2,CCCn1ccc2c(OCC(=O)NCc3ccccc3Cl)cccc2c1=O,inactive: 130%
3,O=C(CSc1nccn1Cc1ccccc1)NCc1ccccc1Cl,inactive: 83%
4,CCOC(=O)CC(NC(=O)N1CCC(CN2CCC(C)CC2)CC1)c1ccccc1 (configuration not stated),inactive: 75%
5,CC(=O)NC1CCN(C(=O)Nc2ccccc2)CC1,inactive: 105%
6,Cc1cc(C)nc(NS(=O)(=O)c2ccc(NC(=O)COc3ccc(C(C)(C)C)cc3)cc2)n1,inactive: 62%
7,CN(C)c1ccc(/C=C2/SC(=Nc3ccccc3)NC2=O)cc1,inactive: 116%
8,COC(=O)c1nc(C(=O)OC)c(C(=O)OC)nc1C(=O)OC,inactive: 105%
9,Cc1cccc(C)c1Nc1c(-c2ccsc2)nc2ccc(Cl)cn12,inactive: 84%
10,CC(C)Cn1cc(NC(=O)N2CCN(c3ccccc3F)CC2)c2ccccc2c1=O,inactive: 75%
11,O=S(=O)(c1ccccc1)N1CCN(Cc2ccccc2)CC1,inactive: 100%
12,COc1ccc(-c2cn3nc(N4CCCC(C(=O)NCc5ccccc5Cl)C4)sc3n2)cc1 (configuration not stated),inactive: 75%
13,Cc1cccc(CNC(=O)CCn2ccc3cc(S(=O)(=O)N4CCCC4)ccc32)c1,inactive: 76%
14,COc1ccc(OC)c(CCNC(=O)c2cnn(-c3ccccc3)c2C2CCN(C(=O)OC(C)(C)C)CC2)c1,inactive: 102%
15,COC(=O)c1cc2oc3ccccc3c2n1Cc1cc(C)ccc1C,inactive: 137%
16,O=c1c(N2CCN(c3cccc(C(F)(F)F)c3)CC2)csc2ccc(Cl)cc12,inactive: 74%
17,Cc1ccccc1CSc1nc2c(sc3ccccc32)c(=O)n1CCCOC(C)C,inactive: 134%
18,COc1cc(OC)cc(N2CCN(S(=O)(=O)c3ccc(-n4cnnn4)cc3)CC2)c1,inactive: 93%
19,O=C1CC(c2ccccc2)Cc2[nH]c(=O)c(-c3nc(-c4ccc(Cl)cc4)cs3)cc21 (configuration not stated),inactive: 61%
20,CCN1CCN(C(c2cccc(F)c2)c2c(O)cc(C)n(Cc3ccco3)c2=O)CC1 (configuration not stated),inactive: 71%
21,Cc1nn(C)c2c1c(-c1ccccc1)cc(=O)n2C(C)C(=O)NCc1ccc(F)cc1 (configuration not stated),inactive: 71%
22,Cc1ccc(-n2nnnc2CNC(=O)C(C)C)cc1C,inactive: 79%
23,CCSc1nnc2c(n1)OC(CC)N(C(C)=O)c1ccccc1-2 (configuration not stated),inactive: 131%

row,Compound,survival
1,O=C(NCCC1=CCCCC1)c1ccc2c(c1)ncn2-c1ccc(F)c(F)c1,inactive: 87%
2,CC(=O)c1ccc(N2CCN(S(=O)(=O)c3ccc4[nH]c5c(c4c3)CCCC5)CC2)cc1,inactive: 57%
3,O=c1c2c(-c3ccc(Cl)cc3)ccnc2[nH]n1-c1ccccc1,inactive: 85%
4,CC(=O)Nc1cccc(NC(=O)c2c(-c3ccccc3)c(-c3ccccc3)nn(C)c2=O)c1,inactive: 85%
5,CCc1ccccc1NS(=O)(=O)c1ccc2c(c1)OCC(C(=O)N1CCCC1)O2 (configuration not stated),inactive: 71%
6,CCCN(CCC)C(=O)CSc1nc2sc3c(c2c(=O)n1-c1ccccc1)CCN(C(C)=O)C3,inactive: 154%
7,CCOCc1cc(CN2CCN(c3cccc(Cl)c3)CC2)c(O)c2ncccc12,inactive: 67%
8,CCc1ccc(Nc2nc(N)nc(CSc3nc4ccccc4s3)n2)cc1,inactive: 34%
9,CCN(Cc1ccccc1)Cc1c(O)ccc2c(=O)c(-c3ccccc3Cl)c(C(F)(F)F)oc12,inactive: 95%
10,O=C(NCc1cccc(F)c1)c1cccc(NC(=O)c2nsc3ccccc23)c1,inactive: 87%
11,COc1ccc(OC)c(C2c3c(oc4ccc(C)cc4c3=O)C(=O)N2CCCN(C)C)c1 (configuration not stated),inactive: 89%
12,CCC(CC)C(=O)Nc1cccc(-c2nc3ccccc3s2)c1,inactive: 73%
13,CCOc1ccc(-c2nnc(SCC(=O)NCc3ccc(C)cc3)nc2-c2ccc(OCC)cc2)cc1,inactive: 124%
14,Fc1ccc(-c2cn3cc(Cc4ccc(Cl)cc4)sc3n2)cc1,inactive: 75%
15,CCc1ccc(-n2nc3ccc(NC(=O)c4ccc(C#N)cc4F)cc3n2)cc1,inactive: 73%
16,COc1cccc(CNC(=O)C2CCN(c3nnc(-n4c(C)ccc4C)s3)CC2)c1,inactive: 77%
17,Cc1cccc(-n2ncc3c(NC4CCCC4)ncnc32)c1,inactive: 69%
18,CCC(C(=O)Nc1cc(-c2nc3cccnc3s2)ccc1C)c1ccccc1 (configuration not stated),inactive: 71%
19,O=C(Cn1c(SCC(=O)Nc2nccs2)nc2ccccc21)NCc1ccccc1,inactive: 110%
20,S=C(Nc1ccccn1)c1ccccc1,inactive: 110%
21,CCOc1ccccc1C1CC(=O)Oc2c1c(=O)n(C)c1ccccc21 (configuration not stated),inactive: 68%
22,Cc1ccc(Cl)cc1NC(=O)Cn1c(=O)c2ccccc2n2nncc12,inactive: 91%
23,CC1(C)Oc2ccc(C(=O)Nc3ccccc3)cc2N(CC(=O)N2CCCC2)C1=O,inactive: 117%
